# Laboratory results as given in ChEMBL document CHEMBL4888484, “Replenishing the malaria drug discovery pipeline: Screening and hit evaluation of the MMV Hit Generation Library 1 (HGL1) against asexual blood stage Plasmodium falciparum ,using a nano luciferase reporter read-out” (2022).
# About 540 (0.36%) of roughly 150,000 compounds showed an effect of 50% or more. The list shows a part of the results.
# Tested on: Plasmodium falciparum
# Assay: Primary screen in NF54 nanoGlo assay, in single point, at 2uM, 72h; a lower Z score goes with more inhibition
# Format: functional, Erythrocyte
# Conditions: timepoint 72 hour
SMILES,% Inhibition [%],Z score
CCCCNC(=O)Cc1noc([C@@H](O)C2CCCC2)n1,-11,1.53
Cc1ccc(-c2csc(NS(=O)(=O)c3ccc(Cl)cc3)n2)o1,1,-0.22
COc1nn(C)cc1C(=O)NCCN1Cc2cc(Cl)ccc2OCC1=O,-10,1.8
COc1ccc(CN2C(=O)N[C@@H](CC(=O)Nc3nccs3)C2=O)cc1OC,9,-1.12
Cc1ccc([C@@H]2CCCCN2C(=O)Cc2ccn(C)n2)o1,-6,0.97
Cc1nn(C)cc1CN1CCC[C@@](F)(c2nc(-c3ccncc3)no2)C1,5,-0.67
O=C1CN(c2ccccc2)C(=O)N1CC1CCS(=O)(=O)CC1,2,-0.24
CC[C@H](C)Cc1nc(CN)n(Cc2cccc(C)c2)n1,0,0.05
COc1ccccc1CNC(=O)[C@@H]1CN(S(C)(=O)=O)c2cc(C)ccc2O1,11,-1.46
COCc1ccc(C(=O)N(CC(F)(F)F)[C@H]2CCCOC2)cc1,-10,1.04
Cc1cc(C2CCC(C(=O)NCC3CC3)CN2C(=O)NC(C)C)ccc1F (centres undefined),0,0
CC(C)Cc1ccc(S(=O)(=O)N(CCCc2ccccc2)CC(=O)N2CCNCC2)cc1,3,-0.37
Cc1cc(C(=O)NC[C@@H](c2ccco2)n2cccn2)no1,8,-1.14
CS(=O)(=O)c1ccc(-n2nc(C3CC3)nc2COCc2ccccc2)cc1,-3,0.25
COc1ccccc1CNC(=O)C1CCN(c2nnc3c(Cl)cccn23)CC1,-10,1.14
Cc1c(O)cccc1C(=O)N1CCCN(CC2CC2)[C@H](C(C)C)C1,-12,1.08
CCNC(=O)c1ccc(-c2ccc3c(c2)OCCO3)nc1,-2,0.32
CN1C(=O)C2(CCN(C(=O)[C@H]3CC(=O)N(C4CC4)C3)CC2)c2ccccc21,-3,0.65
C[C@H]1C[C@@H](c2nc(Cc3cccnc3)no2)CCN1C,-4,0.84
CCC(=O)N1CCN(c2nc3c(s2)C[C@@H](C(=O)N2CCN(C(C)C)CC2)CC3)CC1,34,-3.9
C[C@@H]1C[C@H](O)CN(C(=O)NCC2CCOC3(CCC3)C2)C1 (some centres undefined),-3,0.35

SMILES,% Inhibition [%],Z score
CC(C)c1nc(NC(=O)[C@H](C)OC2CCCCCC2)n(C)n1,-5,0.59
O=C(NCC[C@H]1CCCO1)c1sccc1OC(F)F,-6,0.59
O=C(NCc1nccs1)c1ccc2c(c1)CN(CCCn1ccnc1)C2=O,-8,0.96
COCCOc1ccnc(-c2noc([C@@H]3CCCN3Cc3cccc(OC)c3)n2)c1,-8,1.15
Cc1nc(CNC(=O)CN(C)C(N)=O)sc1C,-12,1.17
COc1ccc(CNC(=O)Cn2c(C)cc(-c3nnc(C)o3)c2C)cc1,-3,0.51
CC[C@H](C)N(Cc1csc(COc2cc(C)cc(C)c2C)n1)C(=O)c1ccc(OC)cc1,-10,1.24
CC1CCN(c2nc(O)c3c(n2)CCN(Cc2ccc(-c4ccc(C#N)cc4)o2)C3)CC1,-7,1.23
CC1CC(NCC(c2ccco2)N2CCCC2)CN1C1CC1 (centres undefined),9,-1.1
C[C@H]1c2cccn2CCN1CC(=O)NCc1cccs1,-12,1.16
CCNC(=O)NCc1nc(-c2cccc(F)c2)c(-c2ccccn2)[nH]1,-1,0.1
COc1ncccc1C(=O)N1CCN(CC(C)C)[C@@H]2CS(=O)(=O)C[C@@H]21,-18,2.35
Cc1cc(NC(=O)[C@H]2CC(=O)N(c3cc(F)cc(F)c3)C2)ccc1Oc1cccnc1,-5,0.6
C[C@@H](N)C(=O)N(CCc1cccc(F)c1)C1CC1,7,-1.06
CO[C@H]1CCCOC12CCN(C(=O)CCCc1cn[nH]c1)CC2,-3,0.5
COCCCNC(=O)[C@H](C)n1ccc(C(F)(F)F)cc1=O,-4,0.57
Cc1cnn(CCNc2ncnc3[nH]ccc23)c1,2,-0.33
COc1ccc(CCNC(=O)N2CCN(c3nccs3)CC2)cc1OC,2,-0.34
O=C(NC1CCN(c2cnccn2)CC1)c1cc(Cl)c[nH]1,-11,1.4
CCCn1nc2c(c(C(F)F)cc(=O)n2CCC(=O)Nc2ncnc3c2cnn3C)c1C,25,-2.87
COc1ccc(-n2nc(C#N)c(N3CCN(CCO)CC3)n2)cc1,13,-1.6
